# “And” between values parts separate entries of the source, which are not always exact repeats. Equal entries are not always repeated. Among all 360,000 compounds or so, about 25,000 (6.9%) were called active. Inconclusive means that the source gave no clear call. Such entries were picked first, then a sample of the others. Calls follow the shape of the dose curve; as a rule, active = well fitted inhibition curve with a large enough effect; inconclusive = small, poorly fitted or top-dose-only effect; inactive = flat fitted curve, though single readings scatter. Potencies beside an inconclusive call are fits to weak or partial responses and may not hold up.
# Target: Luciferin 4-monooxygenase (Photinus pyralis) (UniProt P08659)
# Sequence of UniProt P08659 (P08659 whole entry, looked up): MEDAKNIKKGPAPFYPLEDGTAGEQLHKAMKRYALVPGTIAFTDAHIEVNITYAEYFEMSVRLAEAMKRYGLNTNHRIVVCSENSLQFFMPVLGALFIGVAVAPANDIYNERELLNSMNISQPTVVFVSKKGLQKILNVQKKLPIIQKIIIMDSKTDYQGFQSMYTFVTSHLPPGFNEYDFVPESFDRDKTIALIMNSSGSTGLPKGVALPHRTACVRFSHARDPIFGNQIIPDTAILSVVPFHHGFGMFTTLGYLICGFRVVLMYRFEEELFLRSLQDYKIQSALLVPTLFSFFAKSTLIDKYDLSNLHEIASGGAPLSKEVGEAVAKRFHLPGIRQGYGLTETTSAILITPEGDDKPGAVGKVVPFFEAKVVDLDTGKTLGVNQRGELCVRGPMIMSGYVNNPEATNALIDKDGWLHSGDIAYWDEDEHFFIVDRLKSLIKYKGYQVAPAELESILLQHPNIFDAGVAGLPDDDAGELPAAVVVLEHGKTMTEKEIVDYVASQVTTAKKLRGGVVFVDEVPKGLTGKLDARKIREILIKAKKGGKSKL
# Experiment: qHTS profiling assay for firefly luciferase inhibitor/activator using purifed enzyme and Km concentrations of substrates (counterscreen for miR-21 project); also: nearly all actives have a fitted effect of over 55% in size;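 as to activity change, negative = inhibition: plate controls were vehicle for no effect and reference inhibitor for full effect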
# Settings: purified FLuc, luminescence inhibition; series mostly up to 57.5 µM; activity change, negative = inhibition: at the top concentration
# From the text: MLPCN Grant: 1 R21 NS059478-01 (miR-21 grant) Assay Provider: NCGC NCGC Assay Overview: Firefly (Photinus pyralis) luciferase is one of the most commonly used transcriptional reporters for a number of reasons. It is considered one of the more dynamically responsive reporters -that is, responsive to changes in reporter transcription - as it requires no post-translational modifications and is enzymatically active directly after protein synthesis (Wood, 1998). Additionally, the half-life of the luciferase protein is short relative to other reporter-gene products (Wood, 1995). Whereas reporters with long half-lives potentially allow for increased signal due to accumulation of reporter-gene product, once accumulated in the cell, dynamic changes in reporter-gene expression may be difficult to detect(Fan and Wood, 2007; Almond et al., 2004). It has been shown that wild-type P. pyralis luciferase has a half-life of approximately […] hours in mammalian cells (Thompson et al., 1991). Firefly luciferase reporter-gene assays are also generally considered one of the most sensitive assay types (Wood, 1995; Wood, 1998). Although light produced in a bioluminescence reaction is of lower intensity than that produced during fluorescence emission, this is offset by little to no background light inherent to luminescent assays. Thus the luciferase reporter can be expressed at much lower levels than fluorescent proteins while still providing robust signal. # However, it was initially observed, in 1991, by Thompson et al., that compounds that resemble the substrates of firefly luciferase (FLuc) can act as competitive inhibitors of the enzyme, and that these compounds, upon interaction with luciferase in the cell, can actually stabilize the protein and increase its half-life. Accumulated intracellular FLuc protein can be measured as an increase in luminescence signal, upon addition of detection reagents (which contain high concentrations of FLuc substrates) commonly used in high-throughput screening. In cell-based reporter gene assays that use FLuc as the reporter gene to quantitate the potential influence of a given compound against the target biology, this apparent increase in luminescence can mistakenly be interpreted as identification of a compound that is active against the target of interest. This is the case for the miR-21 FLuc reporter gene assay used to identify inhibitors of the miR-21 pathway (PubChem AID 2289) - compounds of interest will inhibit miR-21 biogenesis/expression or activity, and are identified by causing an increase in luminescence, due to increased FLuc translation. However, FLuc inhibitory compounds that stabilize the FLuc protein will give an identical read-out, making it difficult to distinguish compounds that are active against the target from those active against FLuc. Previous profiling work to determine the prevalence of compounds that affect FLuc enzymatic activity (PubChem AID 411) identified that ~3% of the MLSMR library (then at ~72K) inhibited FLuc. […] Since the MLSMR had grown to ~350K compounds, and since it was expected that a significant percentage of compounds found active in the miR-21 FLuc assay would be FLuc inhibitors, the library was screened for activity against FLuc using a biochemical assay of purified FLuc and KM concentrations of FLuc substrates (D-luciferin and ATP).
# NCGC Assay Protocol Summary: Reagents: 50mM Tris acetate, pH 7.5; 10mM Mg acetate; 10uM D-luciferin (Sigma #L9504); 10uM ATP; 0.01% Tween-20; 0.05% BSA; 10nM P. pyralis luciferase (Sigma #L9506) Control compounds used were two known firefly luciferase inhibitors (compounds (2) and (5) in Auld et al., 2010), and DMSO. […]
# Tags tell the direction and shape of the fitted curve.
Structure (SMILES),Potency,"activity change, negative = inhibition"
CN1C(=O)C(=Cc2ccccc2Oc2ccc(Cl)c(F)c2)C(=O)N(C)C1=O,"inconclusive: 33.8 µM [inhibitor, partial curve, poor fit]",
O=C(c1ccccc1)C1NC1c1ccccc1 (stereo not drawn),"inconclusive: 26.9 µM [inhibitor, partial curve, poor fit]",
O=C(Nc1ccc2c(c1)OCCO2)c1cccn(Cc2cccc([N+](=O)[O-])c2)c1=O,"inconclusive: 10.7 µM [inhibitor, partial curve]",
COc1ccccc1N=Nc1c(O)[nH]c(=S)[nH]c1=O,"inconclusive: 15.1 µM [inhibitor, partial curve]",
Cc1nc2c(-c3ccccc3)c(C)nn2c(C)c1CCC(=O)N1CCC2(CC1)OCCO2,"inconclusive: 26.9 µM [inhibitor, partial curve, poor fit]",
COc1ccc(OCCOc2cccc(C=C3C(=O)NC(=O)NC3=O)c2)cc1,active: 8.49 µM,
Cn1c(O)c(C(=Nc2ccccc2)SCc2ccccc2Cl)c(=O)n(C)c1=O,"inconclusive: 30.1 µM [inhibitor, partial curve, poor fit]",
CCn1c(C)cc(/C=C2\C(=O)NC(=O)N(c3ccccc3C)C2=O)c1C,"inconclusive: 37.9 µM [inhibitor, partial curve, poor fit]",
OC1/C(=C/c2ccc(C(F)(F)F)cc2)N2CCC1CC2 (stereo not drawn),"inconclusive: 30.1 µM [inhibitor, partial curve, poor fit]",
CCCNc1oc(-c2cccc3ccccc23)nc1C#N,"inconclusive: 3.01 µM [inhibitor, partial curve, poor fit]",
Cc1cn2c(=O)cc(COC(=O)c3ccccc3F)nc2s1,active: 2.69 µM,
COC(=O)COc1ccc(/C=C2\C(=O)NC(=S)N(c3ccc(C)cc3)C2=O)cc1OC,"inconclusive: 30.1 µM [inhibitor, single point]",
O=c1[nH]c(O)c(/C=C2\C=NN=C2c2ccccc2)c(=O)[nH]1,"inconclusive: 19 µM [inhibitor, partial curve]",
O=C(OCC(=O)c1ccc([N+](=O)[O-])cc1)/C(=C/c1ccc(Cl)cc1)NC(=O)c1ccccc1,"inconclusive: 9.53 µM [inhibitor, partial curve, poor fit]",
CSc1ccc(C(c2c(O)c3ccccc3oc2=O)c2c(C)n(C)n(-c3ccccc3)c2=O)cc1 (stereo not drawn),"inconclusive: 16.9 µM [inhibitor, partial curve] and inconclusive: 13.5 µM [inhibitor, partial curve]",
Cc1ccc(-c2nc3ccccc3c(=O)n2-c2cc(C)ccn2)cc1,"inconclusive: 16.9 µM [inhibitor, partial curve]",
CN1CCN(c2csc3ccc(F)cc3c2=O)CC1,"inconclusive: 15.1 µM [inhibitor, partial curve]",
Cc1cc(C=C2C(=O)NC(=S)NC2=O)c(C)n1C1CCCC1,active: 1.51 µM,
CCc1cccc2c(C#N)cn(CC(=O)N3CCOCC3)c12,,inactive: -0.188%
CCN(CC)C(=O)c1ccc(NC(=O)CSc2nnnn2-c2cc(OC)ccc2OC)cc1,,inactive: -0.977%
Cc1ccc(Cn2cc(C=O)c(-c3ccc(F)cc3)n2)cc1,"inconclusive: 6.75 µM [inhibitor, partial curve, poor fit]",

Structure (SMILES),Potency,"activity change, negative = inhibition"
CC(Cc1ccccc1)NC(=O)Cc1ccc(N(C)C)cc1 (stereo not drawn),,inactive: 1.06%
CCOc1ccc(N=Cc2c(O)n(-c3cc(C)cc(C)c3)c(=O)[nH]c2=O)cc1,"inconclusive: 26.9 µM [inhibitor, partial curve, poor fit]",
COc1nc2ccccc2c(=O)n1-c1ccc(C)cc1,"inconclusive: 37.9 µM [inhibitor, partial curve, poor fit]",
CCCCN1CC(O)=C(c2nc3ccccc3s2)C1=N,"inconclusive: 12 µM [inhibitor, partial curve]",
O=c1[nH]c(=O)n(Cc2ccco2)c(O)c1C=NC1CC1,,inactive: 5.58%
CCOc1cc(/C=C2\C(=O)NC(=O)N(CCc3ccc(F)cc3)C2=O)ccc1O,"inconclusive: 37.9 µM [inhibitor, partial curve, poor fit]",
CSc1ncc(/C=C2/C(=O)NC(=O)N(C)C2=O)cn1,"inconclusive: 26.9 µM [inhibitor, partial curve, poor fit]",
Cc1cc(/C=C2\C(=O)NC(=S)N(C)C2=O)c(C)n1C1CCCCC1,active: 0.478 µM,
Cc1ccc(N)c(N)c1,active: 5.36 µM,
CN(C)CCN(C(=O)c1cc(Cl)sc1Cl)c1nc2ccc(F)cc2s1,"inconclusive: 19 µM [inhibitor, single point]",
Cc1cccc(-n2c(O)c(/C=C3/C(c4ccccc4)=Nc4ccccc43)c(=O)[nH]c2=O)c1,"inconclusive: 26.9 µM [inhibitor, single point]",
CC(Oc1ccc(-c2ccccc2)cc1)C(=O)O (stereo not drawn),"inconclusive: 37.9 µM [inhibitor, partial curve, poor fit]",
CCOC(=O)c1cccc(NC(=O)c2cnc(N3CCCCC3)c3ccccc23)c1,"inconclusive: 9.53 µM [inhibitor, partial curve]",
CN1C(=O)NC(=O)/C(=C/c2ccc(C(=O)O)cc2)C1=O,"inconclusive: 37.9 µM [inhibitor, single point]",
Cc1cc(/C=C2/C(=O)NC(=O)N(Cc3ccco3)C2=O)c(C)n1-c1ccc(C(=O)O)cc1,,inactive: -2.68%
Cc1cc(/C=C2\C(=O)NC(=O)N(Cc3ccccc3)C2=O)c(C)n1-c1ccc(Cl)c(C(=O)O)c1,"inconclusive: 37.9 µM [inhibitor, single point]",
CCOc1ccccc1-n1c(O)c(C=Nc2ccc(N(CC)CC)cc2)c(=O)[nH]c1=O,active: 19 µM,
CN1C(=O)C(=Cc2ccc(-c3cccc(Cl)c3)o2)C(=O)N(C)C1=O,"inconclusive: 10.7 µM [inhibitor, partial curve, poor fit]",
Cn1c(=O)c2c(nc(N/N=C/c3c(O)n(-c4ccccc4)c(=S)[nH]c3=O)n2C)n(C)c1=O,"inconclusive: 37.9 µM [inhibitor, partial curve, poor fit]",
CCOc1ccc(NC(=O)c2ccc(NC(=O)COC(=O)Cc3ccccc3)cc2)cc1,,inactive: -13.6%
COC(=O)C1=Nc2ccccc2/C1=C\c1c(O)n(-c2cc(OC)ccc2OC)c(=O)[nH]c1=O,"inconclusive: 37.9 µM [inhibitor, partial curve, poor fit]",

Structure (SMILES),Potency,"activity change, negative = inhibition"
CC/C(=N\NC(=S)Nc1ccccc1)c1c(O)[nH]c(=O)[nH]c1=O,"inconclusive: 21.3 µM [inhibitor, partial curve]",
O=c1c2ccccc2nc(-c2ccco2)n1-c1nccs1,"inconclusive: 37.9 µM [inhibitor, partial curve, poor fit]",
N#C/C(=C\c1ccc([N+](=O)[O-])cc1)c1nc(C2CC2)cs1,"inconclusive: 9.53 µM [inhibitor, partial curve]",
Cc1cc(/C=C2\C(=O)NC(=O)N(Cc3ccccc3Cl)C2=O)c(C)n1-c1ccc(C(=O)O)cc1,"inconclusive: 19 µM [inhibitor, partial curve, poor fit]",
CN1C(=O)/C(=C/c2ccc(Cl)s2)C(=O)NC1=S,"inconclusive: 10.7 µM [inhibitor, partial curve]",
O=C(O)c1cccc(N=Nc2c(O)[nH]c(=O)[nH]c2=O)c1,active: 15.1 µM,
CCOC(=O)C(O)(c1ccc(NC(=O)Oc2ccccc2)cc1)C(F)(F)F (stereo not drawn),"inconclusive: 21.3 µM [inhibitor, single point]",
Nc1nc(SCc2ccc(Cl)cc2Cl)n[nH]1,"inconclusive: 16.9 µM [inhibitor, partial curve]",
c1ccc2c(c1)ccc1ncccc12,"inconclusive: 37.9 µM [inhibitor, partial curve, poor fit]",
Cc1c(C)c2ccc(OCC(=O)N3CCC(C(=O)O)(c4ccccc4)CC3)c(C)c2oc1=O,"inconclusive: 23.9 µM [inhibitor, single point]",
CC(Cc1ccccc1)NC(=O)/C=C/c1ccc(Cl)cc1 (stereo not drawn),"inconclusive: 30.1 µM [inhibitor, single point]",
CCC(=NCCCN(C)C)c1c(O)n(-c2ccc(OC)cc2)c(=O)[nH]c1=O,,inactive: 3.66%
CCn1c(C)c(C(=O)Nc2ccc(OC)cc2)c2cc(OC)ccc21,"inconclusive: 10.7 µM [inhibitor, partial curve, poor fit]",
Cc1nccc2c1[nH]c1ccc(Br)cc12,,inactive: 0.598%
c1ccc(-c2ccc(C(c3ccccc3)n3ccnc3)cc2)cc1 (stereo not drawn),"inconclusive: 37.9 µM [inhibitor, single point] and inconclusive: 21.3 µM [inhibitor, partial curve, poor fit]",
CCC12CCN(CCc3ccc([N+](=O)[O-])cc3)CC1Oc1c(O)cccc12 (stereo not drawn),,inactive: 2.23%
Cc1ccc(N2C(=O)NC(=O)/C(=C\c3ccc(N4CCOCC4)cc3)C2=O)cc1,,inactive: -17.9%
CC(=Nc1ccccc1N)c1c(O)n(C)c(=O)[nH]c1=O,,inactive: -6.63%
O=P(O)(Oc1ccccc1)OC(c1ccccc1)C(F)(F)F (stereo not drawn),"inconclusive: 8.49 µM [inhibitor, partial curve]",
COc1ccc(-n2c(/C=C/c3ccc(O)c(O)c3)nc3ccccc3c2=O)cc1,"inconclusive: 23.9 µM [inhibitor, single point]",
CCC(=O)c1ccc(OC(=O)N(C)c2ccccc2)cc1,"inconclusive: 21.3 µM [inhibitor, single point]",

# — PubChem BioAssay AID588342 (National Center for Advancing Translational Sciences (NCATS), 2011)
